In test [1] the target is T1, full-length TMEM115–FLAG–HIS (in vitro translated) (human) (UniProt Q12893).
T1 sequence: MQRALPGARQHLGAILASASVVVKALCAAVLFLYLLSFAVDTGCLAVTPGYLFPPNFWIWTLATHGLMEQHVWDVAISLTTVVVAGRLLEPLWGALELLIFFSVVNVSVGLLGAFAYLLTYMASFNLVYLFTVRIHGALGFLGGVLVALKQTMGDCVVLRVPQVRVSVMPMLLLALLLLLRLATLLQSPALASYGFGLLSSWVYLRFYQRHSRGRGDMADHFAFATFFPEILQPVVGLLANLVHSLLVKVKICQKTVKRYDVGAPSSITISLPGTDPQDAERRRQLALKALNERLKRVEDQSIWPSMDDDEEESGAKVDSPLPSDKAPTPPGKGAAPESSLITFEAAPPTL
Description: co-IP; in vitro translated products combined in cell lysis buffer, FLAG immunoprecipitation, beads washed with cell lysis buffer containing 150 mM NaCl.

Test [2] addresses T1, full-length TMEM115–FLAG–HIS (in vitro translated) (human). Description: co-IP; in vitro translated products combined in cell lysis buffer, FLAG immunoprecipitation, beads washed with cell lysis buffer containing 500 mM NaCl.
For test [3], the target named is T2, C-terminally FLAG-tagged full-length TMEM115 (TMEM115-FL-FLAG) (human), Q12893.
T2 chain: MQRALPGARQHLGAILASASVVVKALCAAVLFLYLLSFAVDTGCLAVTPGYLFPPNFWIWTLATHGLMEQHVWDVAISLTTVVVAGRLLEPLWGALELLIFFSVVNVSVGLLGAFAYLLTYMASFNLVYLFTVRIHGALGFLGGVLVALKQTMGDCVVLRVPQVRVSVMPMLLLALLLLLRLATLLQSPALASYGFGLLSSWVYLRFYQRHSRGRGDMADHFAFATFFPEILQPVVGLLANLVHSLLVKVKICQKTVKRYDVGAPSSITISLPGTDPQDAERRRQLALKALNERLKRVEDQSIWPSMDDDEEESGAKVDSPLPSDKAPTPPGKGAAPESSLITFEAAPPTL
The experiment in a line: co-IP; FLAG immunoprecipitation from lysates of transfected HEK293 cells; lysis buffer 50 mM Tris-HCl pH 7.5, 150 mM NaCl, 1% Triton X-100; 4°C; immunoblotting. To be noted: remark: other sources report otherwise. (In general: Immunoblotting shows a protein as a band on a membrane.)

These are yes or no findings as the source states them, for the method shown. Binding seen in cells or lysates may run through a third protein. Some binding calls cover weakened binding; strength is not graded here. Where a sequence is shown, tags or fusion partners need not be part of it.

B1: Myc-tagged COG5 (in vitro translated) (protein, UniProt Q9UP83 1-860)
chain: MGWVGGRRRDSASPPGRSRSAADDINPAPANMEGGGGSVAVAGLGARGSGAAAATVRELLQDGCYSDFLNEDFDVKTYTSQSIHQAVIAEQLAKLAQGISQLDRELHLQVVARHEDLLAQATGIESLEGVLQMMQTRIGALQGAVDRIKAKIVEPYNKIVARTAQLARLQVACDLLRRIIRILNLSKRLQGQLQGGSREITKAAQSLNELDYLSQGIDLSGIEVIENDLLFIARARLEVENQAKRLLEQGLETQNPTQVGTALQVFYNLGTLKDTITSVVDGYCATLEENINSALDIKVLTQPSQSAVRGGPGRSTMPTPGNTAALRASFWTNMEKLMDHIYAVCGQVQHLQKVLAKKRDPVSHICFIEEIVKDGQPEIFYTFWNSVTQALSSQFHMATNSSMFLKQAFEGEYPKLLRLYNDLWKRLQQYSQHIQGNFNASGTTDLYVDLQHMEDDAQDIFIPKKPDYDPEKALKDSLQPYEAAYLSKSLSRLFDPINLVFPPGGRNPPSSDELDGIIKTIASELNVAAVDTNLTLAVSKNVAKTIQLYSVKSEQLLSTQGDASQVIGPLTEGQRRNVAVVNSLYKLHQSVTKVVSSQSSFPLAAEQTIISALKAIHALMENAVQPLLTSVGDAIEAIIITMHQEDFSGSLSSSGKPDVPCSLYMKELQGFIARVMSDYFKHFECLDFVFDNTEAIAQRAVELFIRHASLIRPLGEGGKMRLAADFAQMELAVGPFCRRVSDLGKSYRMLRSFRPLLFQASEHVASSPALGDVIPFSIIIQFLFTRAPAELKSPFQRAEWSHTRFSQWLDDHPSEKDRLLLIRGALEAYVQSVRSREGKEFAPVYPIMVQLLQKAMSALQ
B1: the results for the binding result in test [1] and in test [2] were “binds” and “no binding (condition: beads washed with 500 mM NaCl)”, respectively.

B2: Myc-tagged COG7 (in vitro translated) (protein, UniProt P83436 1-770)
chain: MDFSKFLADDFDVKEWINAAFRAGSKEAASGKADGHAATLVMKLQLFIQEVNHAVEETSHQALQNMPKVLRDVEALKQEASFLKEQMILVKEDIKKFEQDTSQSMQVLVEIDQVKSRMQLAAESLQEADKWSTLSADIEETFKTQDIAVISAKLTGMQNSLMMLVDTPDYSEKCVHLEALKNRLEALASPQIVAAFTSQAVDQSKVFVKVFTEIDRMPQLLAYYYKCHKVQLLAAWQELCQSDLSLDRQLTGLYDALLGAWHTQIQWATQVFQKPHEVVMVLLIQTLGALMPSLPSCLSNGVERAGPEQELTRLLEFYDATAHFAKGLEMALLPHLHEHNLVKVTELVDAVYDPYKPYQLKYGDMEESNLLIQMSAVPLEHGEVIDCVQELSHSVNKLFGLASAAVDRCVRFTNGLGTCGLLSALKSLFAKYVSDFTSTLQSIRKKCKLDHIPPNSLFQEDWTAFQNSIRIIATCGELLRHCGDFEQQLANRILSTAGKYLSDSCSPRSLAGFQESILTDKKNSAKNPWQEYNYLQKDNPAEYASLMEILYTLKEKGSSNHNLLAAPRAALTRLNQQAHQLAFDSVFLRIKQQLLLISKMDSWNTAGIGETLTDELPAFSLTPLEYISNIGQYIMSLPLNLEPFVTQEDSALELALHAGKLPFPPEQGDELPELDNMADNWLGSIARATMQTYCDAILQIPELSPHSAKQLATDIDYLINVMDALGLQPSRTLQHIVTLLKTRPEDYRQVSKGLPRRLATTVATMRSVNY
For B2, the binding result in test [1] is listed as “binds”; in test [2], “no binding (condition: beads washed with 500 mM NaCl)”.

B3: Myc-tagged COG8 (in vitro translated) (protein, UniProt Q96MW5 1-612)
chain: MATAATIPSVATATAAALGEVEDEGLLASLFRDRFPEAQWRERPDVGRYLRELSGSGLERLRREPERLAEERAQLLQQTRDLAFANYKTFIRGAECTERIHRLFGDVEASLGRLLDRLPSFQQSCRNFVKEAEEISSNRRMNSLTLNRHTEILEILEIPQLMDTCVRNSYYEEALELAAYVRRLERKYSSIPVIQGIVNEVRQSMQLMLSQLIQQLRTNIQLPACLRVIGYLRRMDVFTEAELRVKFLQARDAWLRSILTAIPNDDPYFHITKTIEASRVHLFDIITQYRAIFSDEDPLLPPAMGEHTVNESAIFHGWVLQKVSQFLQVLETDLYRGIGGHLDSLLGQCMYFGLSFSRVGADFRGQLAPVFQRVAISTFQKAIQETVEKFQEEMNSYMLISAPAILGTSNMPAAVPATQPGTLQPPMVLLDFPPLACFLNNILVAFNDLRLCCPVALAQDVTGALEDALAKVTKIILAFHRAEEAAFSSGEQELFVQFCTVFLEDLVPYLNRCLQVLFPPAQIAQTLGIPPTQLSKYGNLGHVNIGAIQEPLAFILPKRETLFTLDDQALGPELTAPAPEPPAEEPRLEPAGPACPEGGRAETQAEPPSVGP
For B3, the binding entry in test [1] is listed as “binds”; in test [2], “no binding (condition: beads washed with 500 mM NaCl)”.

B4: endogenous COG3, Q96JB2 1-828 (protein)
chain: MAEAALLLLPEAAAERDAREKLALWDRRPDTTAPLTDRQTDSVLELKAAAENLPVPAELPIEDLCSLTSQSLPIELTSVVPESTEDILLKGFTSLGMEEERIETAQQFFSWFAKLQTQMDQDEGTKYRQMRDYLSGFQEQCDAILNDVNSALQHLESLQKQYLFVSNKTGTLHEACEQLLKEQSELVDLAENIQQKLSYFNELETINTKLNSPTLSVNSDGFIPMLAKLDDCITYISSHPNFKDYPIYLLKFKQCLSKALHLMKTYTVNTLQTLTSQLLKRDPSSVPNADNAFTLFYVKFRAAAPKVRTLIEQIELRSEKIPEYQQLLNDIHQCYLDQRELLLGPSIACTVAELTSQNNRDHCALVRSGCAFMVHVCQDEHQLYNEFFTKPTSKLDELLEKLCVSLYDVFRPLIIHVIHLETLSELCGILKNEVLEDHVQNNAEQLGAFAAGVKQMLEDVQERLVYRTHIYIQTDITGYKPAPGDLAYPDKLVMMEQIAQSLKDEQKKVPSEASFSDVHLEEGESNSLTKSGSTESLNPRPQTTISPADLHGMWYPTVRRTLVCLSKLYRCIDRAVFQGLSQEALSACIQSLLGASESISKNKTQIDGQLFLIKHLLILREQIAPFHTEFTIKEISLDLKKTRDAAFKILNPMTVPRFFRLNSNNALIEFLLEGTPEIREHYLDSKKDVDRHLKSACEQFIQQQTKLFVEQLEEFMTKVSALKTMASQGGPKYTLSQQPWAQPAKVNDLAATAYKTIKTKLPVTLRSMSLYLSNKDTEFILFKPVRNNIQQVFQKFHALLKEEFSPEDIQIIACPSMEQLSLLLLVSK
With B4, in test [3], the binding entry was “binds”.

B5: Myc–COG3 (transfected), Q96JB2 1-828 (protein)
chain: MAEAALLLLPEAAAERDAREKLALWDRRPDTTAPLTDRQTDSVLELKAAAENLPVPAELPIEDLCSLTSQSLPIELTSVVPESTEDILLKGFTSLGMEEERIETAQQFFSWFAKLQTQMDQDEGTKYRQMRDYLSGFQEQCDAILNDVNSALQHLESLQKQYLFVSNKTGTLHEACEQLLKEQSELVDLAENIQQKLSYFNELETINTKLNSPTLSVNSDGFIPMLAKLDDCITYISSHPNFKDYPIYLLKFKQCLSKALHLMKTYTVNTLQTLTSQLLKRDPSSVPNADNAFTLFYVKFRAAAPKVRTLIEQIELRSEKIPEYQQLLNDIHQCYLDQRELLLGPSIACTVAELTSQNNRDHCALVRSGCAFMVHVCQDEHQLYNEFFTKPTSKLDELLEKLCVSLYDVFRPLIIHVIHLETLSELCGILKNEVLEDHVQNNAEQLGAFAAGVKQMLEDVQERLVYRTHIYIQTDITGYKPAPGDLAYPDKLVMMEQIAQSLKDEQKKVPSEASFSDVHLEEGESNSLTKSGSTESLNPRPQTTISPADLHGMWYPTVRRTLVCLSKLYRCIDRAVFQGLSQEALSACIQSLLGASESISKNKTQIDGQLFLIKHLLILREQIAPFHTEFTIKEISLDLKKTRDAAFKILNPMTVPRFFRLNSNNALIEFLLEGTPEIREHYLDSKKDVDRHLKSACEQFIQQQTKLFVEQLEEFMTKVSALKTMASQGGPKYTLSQQPWAQPAKVNDLAATAYKTIKTKLPVTLRSMSLYLSNKDTEFILFKPVRNNIQQVFQKFHALLKEEFSPEDIQIIACPSMEQLSLLLLVSK
For B5, the binding result in test [3] is given as “binds”.

B6: Myc–COG6 (transfected), Q9Y2V7 1-657 (protein)
chain: MAEGSGEVVAVSATGAANGLNNGAGGTSATTCNPLSRKLHKILETRLDNDKEMLEALKALSTFFVENSLRTRRNLRGDIERKSLAINEEFVSIFKEVKEELESISEDVQAMSNCCQDMTSRLQAAKEQTQDLIVKTTKLQSESQKLEIRAQVADAFLSKFQLTSDEMSLLRGTREGPITEDFFKALGRVKQIHNDVKVLLRTNQQTAGLEIMEQMALLQETAYERLYRWAQSECRTLTQESCDVSPVLTQAMEALQDRPVLYKYTLDEFGTARRSTVVRGFIDALTRGGPGGTPRPIEMHSHDPLRYVGDMLAWLHQATASEKEHLEALLKHVTTQGVEENIQEVVGHITEGVCRPLKVRIEQVIVAEPGAVLLYKISNLLKFYHHTISGIVGNSATALLTTIEEMHLLSKKIFFNSLSLHASKLMDKVELPPPDLGPSSALNQTLMLLREVLASHDSSVVPLDARQADFVQVLSCVLDPLLQMCTVSASNLGTADMATFMVNSLYMMKTTLALFEFTDRRLEMLQFQIEAHLDTLINEQASYVLTRVGLSYIYNTVQQHKPEQGSLANMPNLDSVTLKAAMVQFDRYLSAPDNLLIPQLNFLLSATVKEQIVKQSTELVCRAYGEVYAAVMNPINEYKDPENILHRSPQQVQTLLS
For B6, the binding result in test [3] is “binds”.
